# Measured values as given in PubChem BioAssay AID1508623 (National Center for Advancing Translational Sciences (NCATS), 2021).
# In all, about 48,000 compounds went through this assay and about 450 (0.94%) were called active. Inconclusive results (about 19%) are left out. Calls come from the whole dose curve; as a rule, active = well fitted inhibition curve with a large enough effect; inconclusive = small, poorly fitted or top-dose-only effect; inactive = no such curve, though single readings can be large or run the other way. The list shows a part of the results.
# Test: Primary qHTS for Identification of Small Molecule Inhibitors of Huntingtin Promoter Activity; note: nearly all actives have a fitted effect of over 50% in size
# Conditions: HEK293 HTT promoter firefly luciferase reporter (activity 0% = vehicle and -100% = no light), 24 h; activity change, negative = inhibition: at the top concentration
# Outline: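 HEK293 Fluc reporter, 2,500 cells/well, 24 h pre-culture; cpds up to 57.5 uM final, 24 h 37 degrees C; Dual-Glo, 10 min RT; normalized vehicle = 0%, zero RLU = -100%.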
# Potency is the fitted concentration of half-maximal effect.
Compound,"activity change, negative = inhibition",Potency
COc1ccc2c(c1)CN(C)CC2c1ccc(Cl)c(Cl)c1 (stereo not given),inactive: -5.77%,
C#C[C@]1(O)C=C[C@H]2[C@@H]3CCC4=CC(=O)CC[C@@H]4[C@H]3CC[C@@]21CC,inactive: -4.71%,
Cc1cc(C)cc(NC(=O)CN2C(=O)CN=C(c3ccccc3)c3cc(Cl)ccc32)c1,inactive: -12.2%,
O=C(COc1ccc(Br)cc1)Nc1ccc(Cl)cc1C(=O)c1ccccc1,inactive: 3.1%,
CN1C(=O)NC(=O)C(C)(C2=CCCCC2)C1=O (stereo not given),inactive: -3.17%,
CN1C(=O)CN=C(c2ccccc2)c2cc([N+](=O)[O-])ccc21,inactive: 1.1%,
Cc1ccc(-n2c(/C=C\c3ccc(F)c(F)c3)nc3ccccc3c2=O)c(C)c1,,active: 7.08 µM
O=[N+]([O-])/N=C1\NCCN1Cc1ccc(Cl)nc1,inactive: 5.95%,
CC(=O)OCC1=C(C(=O)O)N2C(=O)[C@@H](N)[C@H]2SC1,inactive: -6.52% [at 25.2 µM],
COC(=O)c1cncn1C(C)c1ccccc1 (stereo not given),inactive: -4.19%,
C[C@H]1C(=O)O[C@@H]2CCN3CC=C(COC(=O)[C@](C)(O)[C@]1(C)O)[C@H]23,inactive: -1.21%,
Cc1cccc(OCC(=O)N2CCN(Cc3cc(=O)n4nc(-c5ccccc5Cl)sc4n3)CC2)c1,inactive: -9.15%,
COc1ccc(C)cc1NC(=O)c1cccn(Cc2cccc([N+](=O)[O-])c2)c1=O,inactive: 43.9%,
CC(C)(N)Cc1ccc(Cl)cc1,inactive: 11.8%,
Cc1ccc(-n2c(/C=C/c3cccs3)nc3ccccc3c2=O)cc1C,inactive: -35.8%,
COCCOCCO,inactive: -2.64% [at 116 µM],
COc1ccc(CN2CCNCC2)c(OC)c1OC,inactive: 1.77%,
C[C@]12C=CC(=O)C=C1CC[C@@H]1[C@@H]2CC[C@@]2(C)[C@H]1CC[C@]2(C)O,inactive: -21.6%,
C[C@]12CC[C@H]3[C@@H](CCC4=CC(=O)CC[C@@H]43)[C@@H]1CC[C@@H]2O,inactive: 2.82%,
CCCC12CN3CC(CCC)(CN(C1)C3c1ccccn1)C2=O (stereo not given),inactive: -13.6%,
O=C(N[C@H]1CN2CCC1CC2)c1ccc(Cl)cc1,inactive: 228%,
C#CC1(O)CCC2C3CCC4=CC(=O)CCC4(C)C3CCC21C (stereo not given),inactive: -10.8%,
O=C1OC(CCN2CCCCC2)OC1(c1ccccc1)c1ccccc1 (stereo not given),inactive: 8.19%,
CCOc1ccc2nc(NC(=O)c3cccn(Cc4ccc(Cl)cc4)c3=O)sc2c1,inactive: -28.3%,

Compound,"activity change, negative = inhibition",Potency
Cc1cc(O)ccc1Cl,inactive: 9.46%,
CCCC(C)C1(CC)C(=O)N=C(S)NC1=O (stereo not given),inactive: -5.98%,
CCc1ccccc1NC(=O)c1cccn(Cc2ccccc2F)c1=O,inactive: -4.48%,
CCOc1ccc2nc(NC(=O)c3cccn(Cc4ccccc4)c3=O)sc2c1,inactive: -5.63%,
C=C(C)[C@H]1CN[C@H](C(=O)O)[C@H]1CC(=O)O,inactive: -0.262%,
NC1CC1c1ccccc1 (stereo not given),inactive: 2.16%,
O=C(Nc1ccc(Cl)cc1C(=O)c1ccccc1)c1cc(Cl)cc(Cl)c1,inactive: -2.26%,
Cn1cc(/C=C/c2nc3ccccc3c(=O)n2-c2ccccc2)c2ccccc21,inactive: -6.04%,
Cc1ccc(-c2nc3ccc(C)cn3c2CC(=O)N(C)C)cc1,inactive: 3.67%,
O=C(Nc1ccc2c(c1)OCO2)c1cccn(Cc2cccc(F)c2)c1=O,inactive: 0%,
Nc1nc(N)nc(NC2CC2)n1,inactive: -0.161%,
CN(C)CCN(C)CCc1ccc(Cl)c(Cl)c1,inactive: -12.4%,
COc1ccccc1NC(=O)N(Cc1ccc2c(c1)OCO2)C1CCN(Cc2ccccc2)CC1,inactive: -21.6%,
COc1cc(C(c2c(O)c3ccccc3oc2=O)c2c(C)n(C)n(-c3ccccc3)c2=O)ccc1OCC(=O)O (stereo not given),inactive: 5.84%,
O=C(Nc1ccc(Cl)cc1C(=O)c1ccccc1)c1ccccc1Br,inactive: -12.1%,
CC(C(=O)c1ccccc1)N(C)C (stereo not given),inactive: 2.63%,
Cc1c(Cl)cccc1NC(=O)CN1C(=O)C(C)N=C(c2ccccc2)c2ccccc21 (stereo not given),inactive: -3.12%,
Cc1cccc(-n2c(/C=C/c3c(C)[nH]c4ccccc34)nc3ccccc3c2=O)c1,inactive: -7.65%,
Nc1c(C(=O)Nc2ccc(Br)cc2F)sc2nc3c(cc12)N1CCC3CC1,inactive: -29.1%,
CCN(CC)CCOC(=O)C(C)(c1ccccc1)c1ccccc1,inactive: 0.763%,
CC(C)=CCOc1c2occc2cc2ccc(=O)oc12,inactive: -1.41%,
N[C@@H](Cc1ccc(N(CCCl)CCCl)cc1)C(=O)O,inactive: -10.5%,
Cc1nnc(NC(=O)c2cccn(Cc3cccc(Cl)c3)c2=O)s1,inactive: 27.1%,
CCC(=O)OC1CCC2C3CCC4=CC(=O)CC[C@@]4(C)C3CC[C@]12C (stereo not given in full),inactive: 17.5%,

Compound,"activity change, negative = inhibition",Potency
C=CCN1C[C@H](C)N([C@H](c2ccc(C(=O)N(CC)CC)cc2)c2cccc(OC)c2)C[C@H]1C,inactive: 0.0402%,
COc1cc(C(c2c(O)c3ccccc3oc2=O)c2c(C)n(C)n(-c3ccccc3)c2=O)ccc1O (stereo not given),inactive: -2.74%,
CC(C)N(CCC(C(N)=O)(c1ccccc1)c1ccccn1)C(C)C (stereo not given),inactive: 6.55%,
CN1CCN(c2oc(-c3ccc(COc4ccccc4)o3)nc2C#N)CC1,inactive: -17.1%,
CC(Cc1ccc(O)cc1)NCC(O)c1cc(O)cc(O)c1 (stereo not given),inactive: 7.65%,
N#Cc1cccc(NC(=O)c2sc3nc4c(cc3c2N)N2CCC4CC2)c1,inactive: 21.3%,
Cc1oc(-c2ccccc2Cl)nc1CN1C(=O)CN=C(c2ccccc2)c2cc(Cl)ccc21,inactive: -23.2%,
C=CC[C@]1(O)CC[C@H]2[C@@H]3CCC4=CC(=O)CCC4=C3C=C[C@@]21C,inactive: -9.66%,
CS(=O)(=O)c1ccc(C(=O)C2C(=O)CCCC2=O)c([N+](=O)[O-])c1,inactive: 11.7% [at 116 µM],
CCCN1CCC[C@@H]2Cc3nc(N)ncc3C[C@H]21,inactive: 10.9%,
CCN[C@@H](C)Cc1ccccc1,inactive: -4.52% [at 116 µM],
CCO[C@H]1O[C@@H]2OC3(C)CC[C@H]4[C@H](C)CC[C@@H]([C@H]1C)[C@@]24OO3,inactive: -23.1%,
N#Cc1cc2c(nc1SCC(=O)Nc1ccc(F)c(Cl)c1)C1CCN2CC1,inactive: -21.2%,
COc1cc(CC(C)N)cc2c1OCO2 (stereo not given),inactive: -1.48% [at 116 µM],
O=C1CC(c2ccc(F)cc2)c2c(c3ccccc3oc2=O)O1 (stereo not given),inactive: 21.5%,
CC(C)(C)[C@]1(O)C[C@@H]2OC(=O)C[C@@]23C(=O)O[C@@H]2OC(=O)[C@H](O)C213 (stereo not given in full),inactive: -0.713%,
COc1ccc(CCNCc2ccc3c(c2)n(C)c(=O)n3C)cc1,inactive: -11.8%,
COCC1(CO)C(=O)C2CCN1CC2 (stereo not given),inactive: -18.5%,
CCCC12CN3CC(C)(CN(C1)C3c1ccccn1)C2=O (stereo not given),inactive: -12%,
CC(=O)N(C)c1cccc(-c2ccnc3c(C(=O)c4cccs4)cnn23)c1,inactive: 5.46%,
CC(Cc1ccc2c(c1)OCO2)NO (stereo not given),inactive: 13.6% [at 116 µM],
O=S(=O)(CC1CS1)c1ccc(Oc2ccccc2)cc1 (stereo not given),inactive: 13.4%,
